# T1: Human Notch4-NRR Fusion Protein (Homo sapiens, UniProt Q99466)
# T1 construct: Human Notch4-NRR domain Fc fusion proteins were expressed with a CHO cell line; Fc; made in house; host or cells: CHO cell line (antigen captured from culture supernatant)
# T1 sequence (Q99466 1046-1445 limits assumed): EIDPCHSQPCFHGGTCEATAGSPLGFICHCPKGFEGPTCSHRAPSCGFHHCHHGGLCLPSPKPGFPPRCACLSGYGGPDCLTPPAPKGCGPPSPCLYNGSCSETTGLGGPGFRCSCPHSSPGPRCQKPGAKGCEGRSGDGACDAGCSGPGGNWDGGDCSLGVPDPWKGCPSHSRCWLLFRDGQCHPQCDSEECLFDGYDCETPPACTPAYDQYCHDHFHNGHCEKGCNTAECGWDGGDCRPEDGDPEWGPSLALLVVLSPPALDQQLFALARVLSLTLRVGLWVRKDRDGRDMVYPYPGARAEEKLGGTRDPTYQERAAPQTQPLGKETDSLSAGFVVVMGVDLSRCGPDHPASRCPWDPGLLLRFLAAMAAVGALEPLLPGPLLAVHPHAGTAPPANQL
# Molecular target: T1, Human Notch4-NRR Fusion Protein
# Assay: Kinetic analysis, captured Human Notch4-NRR Fc fusion protein, humanized antibody injected
# Assay type: binding
# Conditions: Table 30, Human Notch4-NRR Fc fusion
# Protocol: Kinetic analysis of further anti-Notch4 inhibitory humanized antibodies was carried out as follows. Human Notch4-NRR domain Fc fusion proteins were expressed with a CHO cell line. The antigen in the culture supernatant was captured by the anti-human Notch4 antibody fixed on a CM5 sensor chip that recognizes different epitopes of human Notch4. The humanized anti-human Notch4 antibody was then injected onto the sensor chip at various concentrations. The interaction and disassociation constants thereof were calculated according to manufacturer's instructions.
# In the table below, e.g. the description “HK2L3 (Lys-)” means that the heavy chain variable region of the humanized anti-human Notch4 antibody employed in the experiment is the heavy chain variable region of the humanized anti-human Notch4 antibody heavy chain HK2 in Example 1, light chain variable region is the light chain variable region of the humanized anti-human Notch4 antibody light chain L3 in Example 1, and lysine (Lys) located at the C-terminal of the heavy chain of a common human antibody is deleted in this antibody. Those without the description “(Lys-)” mean that Lys located at the C-terminal of the heavy chain of the human antibody is not deleted.
Molecule,Rmax1 (RU),ka [M⁻¹ s⁻¹],kd [s⁻¹]
"Antibody C: humanized anti-human Notch4 antibody, heavy chain variable region HK2, light chain variable region L4, C-terminal Lys deleted (antibody) heavy: EVQLVESGGGLVQPGGSLRLSCAASGFTFSSYGMSWVRQAPGKGLELVSTINSNGGRTYYPDSVKGRFTISRDNSKNTLYLQMGSLRAEDMAVYYCARDQGFAYWGQGTLVTVSSASTKGPSVFPLAPCSRSTSESTAALGCLVKDYFPEPVTVSWNSGALTSGVHTFPAVLQSSGLYSLSSVVTVPSSNFGTQTYTCNVDHKPSNTKVDKTVERKCCVECPPCPAPPAAAPSVFLFPPKPKDTLMISRTPEVTCVVVDVSHEDPEVQFNWYVDGVEVHNAKTKPREEQFNSTFRVVSVLTVVHQDWLNGKEYKCKVSNKGLPAPIEKTISKTKGQPREPQVYTLPPSREEMTKNQVSLTCLVKGFYPSDIAVEWESNGQPENNYKTTPPMLDSDGSFFLYSKLTVDKSRWQQGNVFSCSVMHEALHNHYTQKSLSLSPG light: EIVMTQSPATLSVSPGERATLSCKASQDVGTAVAWYQQKPGQAPRLLIYWASTRHTGIPARFSGSGSGTEFTLTISSLQSEDFAVYFCQQYSSYPWTFGQGTKVEIKRTVAAPSVFIFPPSDEQLKSGTASVVCLLNNFYPREAKVQWKVDNALQSGNSQESVTEQDSKDSTYSLSSTLTLSKADYEKHKVYACEVTHQGLSSPVTKSFNRGEC",35.9,1.91e+06,0.00106
"Antibody A: humanized anti-human Notch4 antibody, heavy chain variable region HK2, light chain variable region L3, C-terminal Lys deleted (antibody) heavy: EVQLVESGGGLVQPGGSLRLSCAASGFTFSSYGMSWVRQAPGKGLELVSTINSNGGRTYYPDSVKGRFTISRDNSKNTLYLQMGSLRAEDMAVYYCARDQGFAYWGQGTLVTVSSASTKGPSVFPLAPCSRSTSESTAALGCLVKDYFPEPVTVSWNSGALTSGVHTFPAVLQSSGLYSLSSVVTVPSSNFGTQTYTCNVDHKPSNTKVDKTVERKCCVECPPCPAPPAAAPSVFLFPPKPKDTLMISRTPEVTCVVVDVSHEDPEVQFNWYVDGVEVHNAKTKPREEQFNSTFRVVSVLTVVHQDWLNGKEYKCKVSNKGLPAPIEKTISKTKGQPREPQVYTLPPSREEMTKNQVSLTCLVKGFYPSDIAVEWESNGQPENNYKTTPPMLDSDGSFFLYSKLTVDKSRWQQGNVFSCSVMHEALHNHYTQKSLSLSPG light: EIVMTQSPATLSVSPGERATLSCKASQDVGTAVAWYQQKPGQAPRLLIYWASTRHTGIPARFSGSGSGTEFTLTISSLQSEDFAVYYCQQYSSYPWTFGQGTKVEIKRTVAAPSVFIFPPSDEQLKSGTASVVCLLNNFYPREAKVQWKVDNALQSGNSQESVTEQDSKDSTYSLSSTLTLSKADYEKHKVYACEVTHQGLSSPVTKSFNRGEC",33.4,1.62e+06,0.000889
"Antibody E: humanized anti-human Notch4 antibody, heavy chain variable region HK2, light chain variable region L6, C-terminal Lys deleted (antibody) heavy: EVQLVESGGGLVQPGGSLRLSCAASGFTFSSYGMSWVRQAPGKGLELVSTINSNGGRTYYPDSVKGRFTISRDNSKNTLYLQMGSLRAEDMAVYYCARDQGFAYWGQGTLVTVSSASTKGPSVFPLAPCSRSTSESTAALGCLVKDYFPEPVTVSWNSGALTSGVHTFPAVLQSSGLYSLSSVVTVPSSNFGTQTYTCNVDHKPSNTKVDKTVERKCCVECPPCPAPPAAAPSVFLFPPKPKDTLMISRTPEVTCVVVDVSHEDPEVQFNWYVDGVEVHNAKTKPREEQFNSTFRVVSVLTVVHQDWLNGKEYKCKVSNKGLPAPIEKTISKTKGQPREPQVYTLPPSREEMTKNQVSLTCLVKGFYPSDIAVEWESNGQPENNYKTTPPMLDSDGSFFLYSKLTVDKSRWQQGNVFSCSVMHEALHNHYTQKSLSLSPG light: EIVMTQSPATLSVSPGERATLSCKASQDVGTAVAWYQQKPGQSPRLLIYWASTRHTGIPARFSGSGSGTEFTLTISSLQSEDFAVYFCQQYSSYPWTFGQGTKVEIKRTVAAPSVFIFPPSDEQLKSGTASVVCLLNNFYPREAKVQWKVDNALQSGNSQESVTEQDSKDSTYSLSSTLTLSKADYEKHKVYACEVTHQGLSSPVTKSFNRGEC",28.9,2.23e+06,0.00115

# The next lines start with the values.
Rmax1 (RU),ka [M⁻¹ s⁻¹],kd [s⁻¹],Molecule
20.2,1.55e+06,0.00136,"Antibody F: humanized anti-human Notch4 antibody, heavy chain variable region HA2, light chain variable region L3, C-terminal Lys deleted (antibody) heavy: EVQLVESGGGLVQPGGSLRLSCAASGFTFSSYGMSWVRQAPGKGLELVSTINSNGGRTYYANSVKGRFTISRDNSKNTLYLQMGSLRAEDMAVYYCARDQGFAYWGQGTLVTVSSASTKGPSVFPLAPCSRSTSESTAALGCLVKDYFPEPVTVSWNSGALTSGVHTFPAVLQSSGLYSLSSVVTVPSSNFGTQTYTCNVDHKPSNTKVDKTVERKCCVECPPCPAPPAAAPSVFLFPPKPKDTLMISRTPEVTCVVVDVSHEDPEVQFNWYVDGVEVHNAKTKPREEQFNSTFRVVSVLTVVHQDWLNGKEYKCKVSNKGLPAPIEKTISKTKGQPREPQVYTLPPSREEMTKNQVSLTCLVKGFYPSDIAVEWESNGQPENNYKTTPPMLDSDGSFFLYSKLTVDKSRWQQGNVFSCSVMHEALHNHYTQKSLSLSPG light: EIVMTQSPATLSVSPGERATLSCKASQDVGTAVAWYQQKPGQAPRLLIYWASTRHTGIPARFSGSGSGTEFTLTISSLQSEDFAVYYCQQYSSYPWTFGQGTKVEIKRTVAAPSVFIFPPSDEQLKSGTASVVCLLNNFYPREAKVQWKVDNALQSGNSQESVTEQDSKDSTYSLSSTLTLSKADYEKHKVYACEVTHQGLSSPVTKSFNRGEC"
29.2,1.78e+06,0.00111,"Antibody G: humanized anti-human Notch4 antibody, heavy chain variable region HK3, light chain variable region L4, C-terminal Lys deleted (antibody) heavy: EVQLVESGGGLVQPGGSLRLSCAASGFTFSSYGMSWVRQAPGKGLELVATINSNGGRTYYPDSVKGRFTISRDNSKNTLYLQMGSLKAEDMAVYYCARDQGFAYWGQGTLVTVSSASTKGPSVFPLAPCSRSTSESTAALGCLVKDYFPEPVTVSWNSGALTSGVHTFPAVLQSSGLYSLSSVVTVPSSNFGTQTYTCNVDHKPSNTKVDKTVERKCCVECPPCPAPPAAAPSVFLFPPKPKDTLMISRTPEVTCVVVDVSHEDPEVQFNWYVDGVEVHNAKTKPREEQFNSTFRVVSVLTVVHQDWLNGKEYKCKVSNKGLPAPIEKTISKTKGQPREPQVYTLPPSREEMTKNQVSLTCLVKGFYPSDIAVEWESNGQPENNYKTTPPMLDSDGSFFLYSKLTVDKSRWQQGNVFSCSVMHEALHNHYTQKSLSLSPG light: EIVMTQSPATLSVSPGERATLSCKASQDVGTAVAWYQQKPGQAPRLLIYWASTRHTGIPARFSGSGSGTEFTLTISSLQSEDFAVYFCQQYSSYPWTFGQGTKVEIKRTVAAPSVFIFPPSDEQLKSGTASVVCLLNNFYPREAKVQWKVDNALQSGNSQESVTEQDSKDSTYSLSSTLTLSKADYEKHKVYACEVTHQGLSSPVTKSFNRGEC"

# From patent publication US9969812B2, “Anti human Notch4 antibody” (Eisai R&D Management Co., Ltd., priority 2015, dated 2018)
